The list shows a part of the results. The full chains were built here from the parent and the listed change. Inactive controls read about 0.05.
B1: TEV protease; numbered along this chain (parent)
chain: MGESLFKGPRDYNPISSSICHLTNESDGHTTSLYGIGFGPFIITNKHLFRRNNGTLVVQSLHGVFKVKDTTTLQQHLVDGRDMIIIRMPKDFPPFPQKLKFREPQREERICLVTTNFQTKSMSSMVSDTSCTFPSGDGIFWKHWIQTKDGQCGSPLVSTRDGFIVGIHSASNFTNTNNYFTSVPKNFMELLTNQEAQQWVSGWRLNADSVLWGGHKVFMVKPEEPFQPVKEATQL

Variants of: B1
Assay: raw area under fraction-flipped curve 0-4 h after induction (AUC4h, not background-subtracted), DNA-recorder readout of cleavage of the substrate (dimensionless); higher = more cleavage of the substrate by the protease variant
Details: temperature: 34 °C; time window: 0-4 h after rhamnose induction
Protocol: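 In vivo DNA recorder in E. coli TOP10(DE3) ΔrhaA at 34 °C. Each TEVp single-site mutant (parent TEVp 0) is paired with a single-site variant of the 7-mer TEVs (canonical ENLYFQ|S). The substrate sits between flexible linkers in a Bxb1-sfGFP-TEVs-SsrA fusion, so cleavage stabilises Bxb1 and speeds flipping of a recombination array, read by NGS. The value is the raw area under the fraction-flipped curve over 0-4 h after rhamnose induction (AUC4h), with ≥20 reads per time point. It is not background-subtracted; inactive controls average about 0.047.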
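Further: Bxb1 expression induced with 0.2% (w/v) L-rhamnose at OD600 near 0.5, cultures sampled hourly, flipped fraction per protease–substrate barcode pair counted by paired-end Illumina sequencing.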

Variant	area with substrate ANLYFQS	area with substrate CNLYFQS	area with substrate FNLYFQS	area with substrate HNLYFQS	area with substrate KNLYFQS	area with substrate LNLYFQS	area with substrate MNLYFQS	area with substrate NNLYFQS	area with substrate PNLYFQS	area with substrate SNLYFQS	area with substrate TNLYFQS	area with substrate VNLYFQS	area with substrate WNLYFQS	area with substrate YNLYFQS	area with substrate DNLYFQS	area with substrate INLYFQS	area with substrate GNLYFQS	area with substrate QNLYFQS	area with substrate RNLYFQS
T72V	0.0672	0.067	0.0526	0.062	0.0598	0.061	0.0477	0.0514	0.0686	0.0828	0.0593	0.0645	0.0549	0.0653	–	–	–	–	–
T72A	0.0725	–	–	0.0626	0.0951	0.0596	–	0.0728	0.0411	0.0641	0.0632	–	0.0594	0.0643	0.065	0.0506	–	–	–
T72G	0.0595	0.0729	0.0536	0.0637	–	0.0607	–	0.0583	0.0695	0.0614	–	–	0.0598	0.0589	0.0706	–	–	–	–
P93S	0.0501	0.0519	–	0.0662	0.0671	0.0545	–	0.0619	0.0469	–	0.0525	0.0676	0.0663	–	0.0567	–	0.088	–	–
K46S	0.0725	0.0666	0.0443	0.0618	0.063	0.0624	0.0624	0.0664	0.0682	0.0754	0.0757	0.0845	0.0645	0.0517	0.0678	0.076	–	–	–
L61G	0.0598	0.0583	0.0717	0.0524	0.0597	0.0808	0.0618	–	0.0694	0.0708	–	0.0767	0.0485	0.0801	0.0661	0.0639	0.0736	0.0712	–
N52W	0.0543	0.0622	0.064	0.0485	0.063	0.0606	0.065	0.0684	0.0667	0.0581	0.0597	0.0641	0.0574	0.059	0.062	0.0605	–	0.062	–
G80T	0.0685	–	0.0546	–	–	0.0632	–	–	0.0623	0.0668	0.052	0.0631	0.0797	–	0.0774	0.0604	0.065	0.0664	0.0707
G80C	0.0647	–	0.0654	0.0709	–	0.0753	0.0623	0.048	0.0562	0.0629	0.0713	–	0.0644	0.0668	0.0935	0.0703	0.0578	0.066	–
G80N	0.0762	0.0532	0.0556	0.0657	0.0705	0.0729	–	0.0579	0.0802	0.0812	–	–	0.0792	0.0681	0.104	–	0.0679	0.0802	–
P104W	0.0511	0.0413	0.05	0.0501	0.045	–	–	–	0.0522	0.0312	0.036	0.054	0.0483	0.0525	–	–	0.0682	–	–
P104I	0.0624	–	0.0739	0.0698	0.106	0.0555	0.0574	–	0.0528	0.0452	0.0599	0.0867	0.0642	0.0584	0.0601	0.0529	0.0556	–	0.0591
P104F	0.0658	–	–	–	–	0.0523	0.0486	0.062	–	–	–	–	0.0411	–	–	–	–	–	–
Q75P	0.022	0.0597	0.0606	0.0628	0.0666	0.0628	–	0.0571	0.0491	–	0.0611	–	0.0603	0.0569	0.0679	0.0562	0.0513	–	0.055
Q105W	0.063	0.0686	–	0.0637	0.0785	0.0661	0.0576	0.069	0.0664	0.0599	0.0635	0.071	0.0543	–	0.0782	0.0651	0.0713	–	–
Q105F	0.0646	0.0693	–	0.0487	0.0608	–	0.0716	–	0.0683	0.0538	0.068	–	–	0.0567	0.0466	–	–	–	–
L48S	0.0651	0.0628	–	0.0538	0.0653	–	0.0689	–	0.0663	–	0.0643	–	0.0582	–	0.0668	0.0534	0.063	0.0569	–
L48M	0.0379	0.0648	0.0668	0.0606	0.0546	–	–	0.0543	0.0613	0.0674	0.0647	0.0631	0.0603	–	–	0.0657	–	–	0.0582
L48V	0.0547	0.062	0.0554	0.0593	0.0655	0.0542	0.0655	0.0667	0.0611	0.0512	0.0781	0.0713	0.056	0.0778	0.0614	0.0369	0.0529	0.0546	–
L48R	0.0753	–	0.062	0.0571	0.0685	0.0549	–	0.0648	0.0589	0.0547	0.0571	–	0.0567	0.0564	0.0554	0.0515	–	0.0751	–
L48F	0.0762	0.061	0.0626	0.065	0.0591	0.0728	0.052	0.0319	–	–	–	–	0.0463	0.0501	–	0.0715	–	–	–
L48G	0.0788	0.0686	0.0591	0.0602	0.0583	0.0707	0.0544	–	0.0638	0.0661	0.0592	–	0.0621	0.0637	0.0628	0.0716	0.0597	–	–
L48W	0.0619	0.0584	0.092	0.0659	0.0704	0.0598	0.0568	–	0.0605	–	0.0729	0.0564	0.0565	0.06	0.0675	–	0.058	–	–
E103G	0.0075	0.0693	0.0612	0.0644	0.073	–	0.0658	0.0637	0.0549	–	0.0707	–	0.0588	0.06	0.0874	0.0661	0.074	0.0663	–
R106D	0.0788	0.0673	0.0581	0.0818	–	0.0585	–	0.0629	0.087	0.0819	0.064	0.0733	0.0607	0.0595	0.0694	–	0.0656	–	–
G54I	0.0571	0.0619	–	0.049	0.0572	0.052	–	–	–	0.0538	0.0583	–	0.0512	0.0523	0.0617	0.0548	0.0614	–	–

Source: the supplement of paper PMC12217912
